Measurements reported in PubChem BioAssay AID720709 (National Center for Advancing Translational Sciences (NCATS), 2013).
About 520 (0.14%) of roughly 360,000 compounds were called active. The shares of active, inactive and inconclusive entries below differ from those in the screen. The call rests on the fitted dose curve; in most records, active means well fitted inhibition curve with a large enough effect; inconclusive means small, poorly fitted or top-dose-only effect; inactive means no such curve, though single readings can be large or run the other way. Potencies of inconclusive entries are left out as doubtful fits.

Target: Rap guanine nucleotide exchange factor 3 (Homo sapiens) (UniProt O95398)
Experiment: qHTS for Antagonist of cAMP-regulated guanine nucleotide exchange factor 3 (EPAC1): primary screen; further: nearly all actives have a fitted effect of over 50% in size;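 on activity change, negative = inhibition: plate controls were vehicle for no effect and positive control for full effect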
Details: EPAC1 GEF assay, Rap1b-BODIPY-GDP exchange fluorescence; activity change, negative = inhibition: at 115 µM (top of the series)
Potency means the concentration at half of the fitted maximal effect; tags describe the fitted curve by direction and shape.

UniProt O95398, sequence (O95398 whole entry, looked up): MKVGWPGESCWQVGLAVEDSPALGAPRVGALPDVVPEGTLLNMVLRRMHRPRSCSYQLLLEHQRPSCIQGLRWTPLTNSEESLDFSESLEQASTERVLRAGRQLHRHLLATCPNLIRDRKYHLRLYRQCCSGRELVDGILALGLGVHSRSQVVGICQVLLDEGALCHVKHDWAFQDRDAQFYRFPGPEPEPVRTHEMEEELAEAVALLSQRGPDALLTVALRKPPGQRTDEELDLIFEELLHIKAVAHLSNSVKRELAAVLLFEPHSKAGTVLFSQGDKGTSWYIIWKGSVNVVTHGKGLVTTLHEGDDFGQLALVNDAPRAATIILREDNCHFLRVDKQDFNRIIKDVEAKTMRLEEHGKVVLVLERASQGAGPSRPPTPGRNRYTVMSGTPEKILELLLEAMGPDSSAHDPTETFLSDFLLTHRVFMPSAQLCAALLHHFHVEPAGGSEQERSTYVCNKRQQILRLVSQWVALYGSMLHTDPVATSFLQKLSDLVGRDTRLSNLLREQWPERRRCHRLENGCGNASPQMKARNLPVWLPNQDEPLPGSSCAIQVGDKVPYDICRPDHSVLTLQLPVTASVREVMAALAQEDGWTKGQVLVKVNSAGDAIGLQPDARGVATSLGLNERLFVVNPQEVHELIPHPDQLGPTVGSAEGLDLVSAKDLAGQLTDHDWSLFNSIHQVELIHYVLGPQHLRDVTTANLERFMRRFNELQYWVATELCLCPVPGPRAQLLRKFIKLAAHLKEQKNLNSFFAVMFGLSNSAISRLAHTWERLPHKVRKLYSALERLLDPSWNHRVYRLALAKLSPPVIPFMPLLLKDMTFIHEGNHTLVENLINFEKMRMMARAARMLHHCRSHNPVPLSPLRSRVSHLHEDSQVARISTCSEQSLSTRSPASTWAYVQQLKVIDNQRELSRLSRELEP

Row | Structure (SMILES) | Potency | activity change, negative = inhibition
1 | COc1ccccc1C(=O)C1CCCN(C(=O)c2ccc3c(c2)OCCO3)C1 (configuration not stated) | inconclusive [inhibitor, single point] | 
2 | COc1cc(/C=C2\SC(=S)N(N3CCOCC3)C2=O)ccc1O | inconclusive [inhibitor, single point] | 
3 | O=C(NCCN1CCOCC1)c1ccc(N2CCCC2)c([N+](=O)[O-])c1 | inconclusive [inhibitor, single point] | 
4 | Cc1cc(C)c(C#N)c(SCCS(=O)(=O)c2ccc(Cl)cc2)n1 |  | inactive: -6.53%
5 | C=C1CCN([C@@H](Cc2ccccc2)C(=O)O)S(=O)(=O)c2ccccc21 |  | inactive: 0.985%
6 | CCN1C(=O)C(CC(=O)Nc2ccc(OC)cc2)N(CCc2ccc(F)cc2)C1=S (configuration not stated) |  | inactive: -4.27%
7 | O=C(O)CSc1nnc(COc2cccc3ccccc23)n1Cc1ccccc1 | inconclusive [inhibitor, partial curve] | 
8 | CCN(CC)C(=O)c1ccc2nc(-c3ccccc3)c(-c3ccccc3)nc2c1 | inconclusive [inhibitor, full curve, poor fit] | 
9 | O=C(COC(=O)CSc1ccc2ccccc2c1)Nc1ccccc1OC(F)F | inconclusive [inhibitor, single point] | 
10 | O=C(Nc1ccc(N2CCOCC2)c2nonc12)C1CCCC1 |  | inactive: -11%
11 | c1ccc(-c2nc3ccccc3c3nc4ccccc4n23)cc1 |  | inactive: -8.99%
12 | Cc1ccc(N(Cc2ccccc2)C(=O)c2cccc(S(=O)(=O)N3CC(C)OC(C)C3)c2)cc1 (configuration not stated) | inconclusive [inhibitor, single point] | 
13 | CCCCc1ccc(NC(=O)NCc2ccccn2)cc1 | inconclusive [inhibitor, partial curve] | 
14 | Cc1ccccc1N=Cc1c(O)n(-c2nccs2)c(=O)c2ccccc12 |  | inactive: -15.3%
15 | CC(=O)N1N=C(c2ccc(Br)cc2)CC1c1ccc(Br)cc1 (configuration not stated) |  | inactive: 10.9%
16 | Oc1c(C=Nc2cccc3nsnc23)ccc2ccccc12 | inconclusive [inhibitor, single point] | 
17 | COc1ccc(NC(=O)Cn2ncc(Cl)c(Cl)c2=O)cc1S(=O)(=O)N1CCOCC1 | inconclusive [inhibitor, partial curve] | 
18 | COc1cccc(C2SCC(=O)N2c2ccc(Cl)cc2)c1OC (configuration not stated) | inconclusive [inhibitor, partial curve] | 
19 | S=C(NCc1cccnc1)Nc1ccc(Oc2ccc(Cl)cc2)cc1 | inconclusive [inhibitor, full curve, poor fit] | 
20 | Cc1cc(C)c2cc3c(N)c(C(=O)N4CCc5ccccc5C4)sc3nc2c1 | inconclusive [inhibitor, partial curve] | 
21 | Cc1cccc2cc(COC(=O)C3CCCO3)c(=O)[nH]c12 (configuration not stated) | inconclusive [inhibitor, single point] | 

Row | Structure (SMILES) | Potency | activity change, negative = inhibition
22 | CCN1C(=O)C(CC(=O)Nc2ccc(OC)cc2)N(CCc2ccccc2F)C1=S (configuration not stated) | inconclusive [inhibitor, full curve] | 
23 | O=C(O)c1ccc(COc2ccccc2C=C2C(=O)c3ccccc3C2=O)cc1 | inconclusive [inhibitor, partial curve] | 
24 | O=C(OCC(=O)N1CCN(C(=O)c2ccco2)CC1)c1ccccc1NCCO |  | inactive: 2.13%
25 | O=C(O)CCn1cc(/C=C2\NC(=S)N(c3ccccc3)C2=O)c(-c2ccc(Br)cc2)n1 | inconclusive [inhibitor, single point] | 
26 | Cc1ccsc1/C=N/N=C/c1sccc1C |  | inactive: -13.1%
27 | CCOc1ccc(Br)cc1S(=O)(=O)Nc1ccc(S(=O)(=O)Nc2cc(C)on2)cc1 | active: 39.8 µM | 
28 | O=C(Nc1cccc(S(=O)(=O)NC2=NCCC2)c1)c1cc(-c2ccccn2)nc2ccccc12 | inconclusive [inhibitor, full curve, poor fit] | 
29 | COc1cc(C(=O)N(C)CC2CCN(CCc3cccc(C(F)(F)F)c3)CC2)ccc1C | inconclusive [inhibitor, single point] | 
30 | C=CCNC(=O)c1c[nH]c2ccc(S(=O)(=O)N(C)c3ccc(OCC)cc3)cc2c1=O | inconclusive [inhibitor, full curve, poor fit] | 
31 | CC1C/C(=N\NC(=O)c2ccc(NS(=O)(=O)c3ccc(Br)cc3)cc2)CC(C)(C)C1 (configuration not stated) | inconclusive [inhibitor, single point] | 
32 | O=C(CN1C(=O)C2CCCCC2C1=O)OCn1nnc2ccccc2c1=O (configuration not stated) | inconclusive [inhibitor, partial curve, poor fit] | 
33 | COC(=O)c1c(NC(=S)NN2CCN(C)CC2)sc2c1CCC(C)C2 (configuration not stated) | inconclusive [inhibitor, partial curve] | 
34 | CCc1ccc([C@@H]2CC=C(C(=O)O)[C@H](c3ccc(Cl)cc3)N2S(=O)(=O)c2ccc(C)cc2)cc1 | inconclusive [inhibitor, partial curve, poor fit] | 
35 | Nn1c(-c2cccs2)nc2sc3c(c2c1=O)CCCC3 |  | inactive: -5.31%
36 | O=C(Nc1ccccc1)c1ccc(=O)n(Cc2cccc(Cl)c2)c1 | inconclusive [inhibitor, full curve, poor fit] | 
37 | CCc1ccc(S(=O)(=O)/N=C2\C=C(NS(=O)(=O)c3ccccc3)C(=O)c3ccccc32)cc1 | inconclusive [inhibitor, single point] | 
38 | CC(Oc1ccccc1Cl)C(=O)/C=C/N(C)C (configuration not stated) | inconclusive [inhibitor, partial curve] | 
39 | CCOC(=O)c1c(NC(=O)CCN2CCOCC2)sc(C)c1-c1ccccc1 | inconclusive [inhibitor, partial curve] | 
40 | NS(=O)(=O)c1ccc(CCNC(=O)CSc2ccsc2[N+](=O)[O-])cc1 | inconclusive [inhibitor, single point] | 
41 | CNC(=O)c1ccc(Nc2nnc(-c3ccc(O)cc3)c3ccccc23)cc1 | inconclusive [inhibitor, full curve, poor fit] | 
42 | N#Cc1ccc(/C=C/C(=O)c2ccc3c(c2)OCO3)cc1 | inconclusive [inhibitor, single point] | 
